Out of some 310,000 compounds screened, about 14,000 (4.5%) showed an effect of 50% or more. The effect is printed as a negative number. The list shows a part of the results.

Experimental findings from article PMC4336329 (PLoS ONE, 2015) are described below.
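Further: peak tail current of the secondary pulse compared with the same well before compound.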

The target in the assay is human ether-à-go-go-related gene (hERG) potassium channel (human, UniProt Q12809). In words: primary screen, population patch clamp on CHO cells stably expressing hERG.
Chain of human ether-à-go-go-related gene (hERG) potassium channel (Q12809 whole entry, looked up): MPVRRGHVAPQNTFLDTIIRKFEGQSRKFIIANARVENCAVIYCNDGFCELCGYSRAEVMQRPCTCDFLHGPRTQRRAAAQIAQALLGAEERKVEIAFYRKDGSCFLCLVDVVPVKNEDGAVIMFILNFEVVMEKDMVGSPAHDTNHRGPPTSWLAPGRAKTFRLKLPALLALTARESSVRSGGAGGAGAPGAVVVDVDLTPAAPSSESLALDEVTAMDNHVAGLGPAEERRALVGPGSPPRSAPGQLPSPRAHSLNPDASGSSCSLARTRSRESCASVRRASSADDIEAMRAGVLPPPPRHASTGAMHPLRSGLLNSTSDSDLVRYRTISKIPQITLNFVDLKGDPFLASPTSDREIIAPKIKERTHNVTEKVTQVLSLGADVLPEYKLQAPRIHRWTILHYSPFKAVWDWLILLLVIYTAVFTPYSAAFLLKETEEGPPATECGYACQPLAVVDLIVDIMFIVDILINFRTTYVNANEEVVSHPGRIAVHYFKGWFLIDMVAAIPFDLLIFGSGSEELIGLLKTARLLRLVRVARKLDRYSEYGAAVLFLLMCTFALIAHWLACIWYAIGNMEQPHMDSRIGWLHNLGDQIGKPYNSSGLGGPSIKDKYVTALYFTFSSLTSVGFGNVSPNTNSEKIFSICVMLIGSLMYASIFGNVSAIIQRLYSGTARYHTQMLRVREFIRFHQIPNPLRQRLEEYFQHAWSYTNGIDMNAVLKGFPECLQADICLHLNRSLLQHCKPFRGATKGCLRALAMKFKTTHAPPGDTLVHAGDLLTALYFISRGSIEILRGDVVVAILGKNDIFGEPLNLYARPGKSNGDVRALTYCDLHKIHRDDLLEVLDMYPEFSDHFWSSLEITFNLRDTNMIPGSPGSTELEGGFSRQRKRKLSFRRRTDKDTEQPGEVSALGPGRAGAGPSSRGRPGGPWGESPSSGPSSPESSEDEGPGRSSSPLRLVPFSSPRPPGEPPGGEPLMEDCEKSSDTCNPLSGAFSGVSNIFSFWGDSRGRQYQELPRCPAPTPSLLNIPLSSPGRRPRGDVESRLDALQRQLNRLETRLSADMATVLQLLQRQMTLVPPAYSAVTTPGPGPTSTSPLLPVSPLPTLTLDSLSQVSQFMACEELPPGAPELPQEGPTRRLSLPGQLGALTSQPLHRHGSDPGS
Regarding `Cc1ccc2nc(SCC(=O)NC3CCCCC3)nc(=O)n2c1`, the “hERG current change (%, negative = inhibition) at 10uM” value was -14.5%.
The result for `CC1CCN(C(=S)c2ccccc2O)CC1` reads 5.57%.
The figure for `COc1ccccc1NC(=O)C1CCN(c2ncnc3c2nc2n3CCCCC2)CC1` is -6.75%; for `COC(=O)C1=C(C)N=C2SC(C)C(=O)N2C1c1cccc(F)c1` (stereo not shown) it is 12.2%; for `O=C(COC(=O)c1ccc(Cl)cc1O)Nc1cccnc1Cl` it is 6.61%.
The figure for `CC(C)(C)N(Cc1ccccc1)C(=O)CN1C(=O)c2ccccc2C1=O` is 16.5%; for `COc1ccc(CN2CCN(c3ccccc3OC)CC2)c(OC)c1.O=C(O)C(=O)O` it is -64.2%; for `CO/N=C\CC(=O)Nc1ccc(Cl)cc1Cl` it is 10.7%.
On to `O=C(Cn1cnc2ccccc2c1=O)Nc1ccc(N2CCOCC2)cc1`, for which the “hERG current change (%, negative = inhibition) at 10uM” value is on record as 10.3%.
In the case of `COc1cccc2oc3cc(C#CC4(O)CCCCC4)ccc3c(=O)c12`, the “hERG current change (%, negative = inhibition) at 10uM” value was 14.3%.
The figure for `CCN(CCCn1c(SCC#N)nc2ccccc2c1=O)c1ccccc1` is -11.9%.
The figure for `COc1ccccc1-c1noc(COC(=O)c2ccc(Br)o2)n1` is -36.3%.
The result for `O=C(CSc1n[nH]c(=O)n1-c1ccccc1)N1CCOCC1` reads 11.3%; that for `O=S(=O)(Nc1nccs1)c1ccc(NCc2cc(Br)cc(Br)c2O)cc1`, 8.1%.
As for `Cc1ccn2cc(C(=O)Nc3nnc(C)s3)nc2c1`, the “hERG current change (%, negative = inhibition) at 10uM” value worked out at 2.8%.
The result for `CCN(CC(=O)Nc1ccccc1C(F)(F)F)C(=O)CCS(=O)(=O)c1ccc(Cl)cc1` reads -6.4%.
The figure for `CCn1cc(C(=O)OCc2ccc(F)cc2)c(=O)c2ccc(C)nc21` is -22.8%; for `O=[N+]([O-])c1ccc(CNc2cccc(Cl)c2)s1` it is -28.3%.
The figure for `CN(C)C=Nc1nonc1-c1ccc(Cl)cc1` is 12.2%; for `COc1cc(NC(=O)CN2CC(c3ccccc3)CC2=O)cc(OC)c1` (stereo not shown) it is 10.7%; for `CCc1nnc(NC(=O)CSc2nnc(COc3ccccc3)n2Cc2ccccc2)s1` it is 5.71%.
Regarding `NCCc1ccccc1`, the “hERG current change (%, negative = inhibition) at 10uM” value was found to be 17.5%.
The result for `Cc1ccc(SCC(=O)OC(C)C(=O)NC2CCCCC2C)c(C)c1` (stereo not shown) reads 15.9%; that for `CCN(CC)CCCNC(=S)N1CCN(c2nc(-c3ccc(F)cc3)cs2)CC1`, -29.6%.
`CC(=O)OCC1OC(OCc2cn(C[C@H]3CC[C@H](Cn4cc(COC5OC(COC(C)=O)C(OC(C)=O)C(OC(C)=O)C5OC(C)=O)nn4)O3)nn2)C(OC(C)=O)C(OC(C)=O)C1OC(C)=O` (stereo partly shown): the “hERG current change (%, negative = inhibition) at 10uM” value worked out at 7.83%.
The result for `CCN(CC(=O)Nc1ccc(NC(C)=O)cc1)C(=O)c1ccc(C(=O)c2ccccc2)cc1` reads 7.69%; that for `Clc1ccc(-n2ncc3c(NCCCn4ccnc4)ncnc32)cc1`, -26.1%; that for `CC(C)c1ccc(NC(=O)C2CCN(S(C)(=O)=O)CC2)cc1`, -1.47%.
The figure for `COc1ccc(OC)c(S(=O)(=O)Nc2cc(C)on2)c1` is 17.2%.
The result for `CC(C)(C)c1ccc(OCC(=O)Nc2ccncc2)c(Br)c1` reads 0.734%; that for `CC(=O)c1ccc(NC(=O)Nc2ccc3c(c2)nc(C)n3C)cc1`, 9.94%.
On to `CC(CNc1ccc([N+](=O)[O-])c2cccnc12)Nc1c([N+](=O)[O-])cc(C(F)(F)F)cc1[N+](=O)[O-]` (stereo not shown), for which the “hERG current change (%, negative = inhibition) at 10uM” value is 6.69%.
The result for `Cn1c(NC(=O)c2cccs2)c(-c2cccs2)c(=O)c2ccccc21` reads 2.52%.
The result for `CCn1c(SCc2ccc(C(=O)O)cc2)nnc1-c1ccc(Cl)cc1` reads 35.2%; that for `COc1cc(S(=O)(=O)N2CCOCC2)ccc1NC(=O)COc1ccc(N(C)S(=O)(=O)c2ccc(C)cc2)cc1`, -18.2%; that for `CCN(CC)S(=O)(=O)c1ccc2c(c1)c(=O)c(C(=O)N1CCN(c3ccccc3)CC1)cn2C`, -28.7%.
The result for `Cc1[nH]c2ccc(-c3nnc(SCC(=O)N4CCCc5ccccc54)o3)cc2c1C` reads 11.1%; that for `Cc1cc(=O)oc2cc(OCC(=O)Nc3c(Cl)cccc3C(F)(F)F)ccc12`, 6.04%.
Consider `COc1ccc(C(=O)C2CCCN(Cc3ccc(C#CCCO)cc3)C2)c(OC)c1` (stereo not shown), for which the “hERG current change (%, negative = inhibition) at 10uM” value is reported as -51.2%.
The figure for `Nc1nonc1-n1nnc(C(=O)N/N=C/c2cccc(F)c2)c1-c1ccccc1` is -41.6%.
`CC(C)Oc1ccc(/C=N/NC(=O)C2CCCN2S(=O)(=O)c2ccc(Cl)cc2)cc1` (stereo not shown): the “hERG current change (%, negative = inhibition) at 10uM” value is recorded as -8.96%.
As to `Cc1ccc(OCC(O)Cn2c(=N)n(CCN3CCOCC3)c3ccccc32)cc1.Cl` (stereo not shown), the “hERG current change (%, negative = inhibition) at 10uM” value is -43.6%.
The figure for `O=C1CC(NS(=O)(=O)c2cccs2)CN1c1ccc(Cl)cc1` (stereo not shown) is -14.1%.
